# Measurements taken from article PMC4336329 (PLoS ONE, 2015).
# The campaign covered roughly 310,000 compounds. About 2,200 (0.71%) showed an effect of 50% or more. Effects have a minus sign here. Some of the results follow. Where a SMILES comes first, the peptide text is derived from it. The star is where a group is joined. Boc = CC(C)(C)OC(=O)*
# Target: human ether-à-go-go-related gene (hERG) potassium channel (human, UniProt Q12809)
# Test: primary screen, population patch clamp on CHO cells stably expressing hERG
# Sequence of human ether-à-go-go-related gene (hERG) potassium channel (Q12809 whole entry, looked up): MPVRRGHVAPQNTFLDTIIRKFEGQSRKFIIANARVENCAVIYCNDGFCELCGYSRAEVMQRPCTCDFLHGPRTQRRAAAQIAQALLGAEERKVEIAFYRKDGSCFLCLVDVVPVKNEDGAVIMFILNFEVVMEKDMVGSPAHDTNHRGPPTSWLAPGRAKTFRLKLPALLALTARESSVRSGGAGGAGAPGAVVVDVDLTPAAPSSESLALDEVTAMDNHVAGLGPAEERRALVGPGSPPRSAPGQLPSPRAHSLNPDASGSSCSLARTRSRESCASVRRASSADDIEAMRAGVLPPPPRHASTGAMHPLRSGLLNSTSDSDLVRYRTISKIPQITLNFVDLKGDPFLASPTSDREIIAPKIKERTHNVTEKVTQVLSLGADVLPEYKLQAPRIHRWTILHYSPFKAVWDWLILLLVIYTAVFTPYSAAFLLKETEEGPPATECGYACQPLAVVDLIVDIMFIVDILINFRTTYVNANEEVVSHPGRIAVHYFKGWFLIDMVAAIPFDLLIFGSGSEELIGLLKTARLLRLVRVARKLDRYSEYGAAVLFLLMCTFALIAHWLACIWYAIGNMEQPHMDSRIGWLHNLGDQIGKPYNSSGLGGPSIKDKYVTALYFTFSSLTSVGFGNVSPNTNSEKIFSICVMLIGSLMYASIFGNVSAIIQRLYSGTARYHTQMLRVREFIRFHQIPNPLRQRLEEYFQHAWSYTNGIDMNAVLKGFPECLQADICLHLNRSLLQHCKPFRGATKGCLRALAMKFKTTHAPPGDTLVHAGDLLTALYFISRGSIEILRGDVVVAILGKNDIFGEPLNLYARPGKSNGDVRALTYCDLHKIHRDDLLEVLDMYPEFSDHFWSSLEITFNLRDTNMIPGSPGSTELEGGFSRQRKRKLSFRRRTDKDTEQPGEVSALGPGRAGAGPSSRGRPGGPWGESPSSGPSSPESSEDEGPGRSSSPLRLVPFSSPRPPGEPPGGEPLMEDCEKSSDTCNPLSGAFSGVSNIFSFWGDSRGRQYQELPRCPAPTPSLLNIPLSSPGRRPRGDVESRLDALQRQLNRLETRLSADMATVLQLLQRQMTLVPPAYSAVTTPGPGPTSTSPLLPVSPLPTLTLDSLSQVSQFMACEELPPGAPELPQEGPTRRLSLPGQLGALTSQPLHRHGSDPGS
row,Compound,"hERG current change (%, negative = inhibition) at 1uM"
1,COc1ccc(C2Cc3ccccc3C(=O)O2)cc1 (stereo not drawn),2.11%
2,CCOC(=O)Cc1csc(NC(=O)c2ccc(Cl)nc2)n1,23%
3,COc1ccc(OCCCC(=O)OC(C)C(=O)Nc2ccc(S(N)(=O)=O)cc2)cc1 (stereo not drawn),1.11%
4,CCN(CC)C(=O)C(=O)N/N=C/c1cccs1,22.6%
5,COCCOC(=O)c1c(C)n(C)c2ccc(OC(=O)c3ccccc3F)cc12,-4.23%
6,O=C(NNC(=S)Nc1ccccc1)c1cc(-c2cccnc2)nc2ccccc12,11.3%
7,CCC(=O)Nc1ccc(-c2nnc(-c3ccccc3)o2)cc1,11.1%
8,O=C(N/N=C/c1cc2c(cc1[N+](=O)[O-])OCO2)c1cccnc1,3.92%
9,O=C(Nc1ccnn1C1CCN(C(=O)c2ccccc2C(F)(F)F)CC1)C1CC1,24.5%
10,CC(=O)Oc1cccc(N2C(=O)CC(Nc3ccc(N4CCOCC4)cc3)C2=O)c1 (stereo not drawn),7.28%
11,O=C(O)c1ccc(N2CCOCC2)c(N2C(=O)C3C4C=CC(C4)C3C2=O)c1 (stereo not drawn),13.2%
12,CN(C)CC(=O)Nc1cc(C(F)(F)F)ccc1Cl,11.8%
13,Cn1c(N/N=C\c2cccc(O)c2)cc(=O)n(C)c1=O,8.68%
14,CC(=O)Oc1ccc2oc(/C=C/N(C)C)c([N+](=O)[O-])c2c1,14.9%
15,CSc1ccccc1NC(=O)CN(C)CC(=O)Nc1cccc(Br)c1,6.04%
16,COc1cccc(S(=O)(=O)NCC(=O)N2CCCC2)c1,22.1%
17,Cc1cccn2c(=O)c(/C=C3\SC(=S)N(CC(C)C)C3=O)c(NCCCOC(C)C)nc12,0.944%
18,COC(=O)CCNC(=O)Cn1cnc2sc3c(c2c1=O)CCCC3,6.87%
19,CSCCC(NC(=O)c1ccco1)C(=O)NCC(c1ccccc1)N(C)C (stereo not drawn),2.41%
20,CN(Cc1ccccc1)c1nc2c(c(=O)n(C)c(=O)n2C)n1CCCc1ccccc1,8.32%
21,CCOc1ccc2[nH]c(=O)c(CN(CCc3ccccc3)C(=O)c3cnccn3)cc2c1,0.505%
22,COc1ccccc1CNC(=O)C(NS(=O)(=O)c1cccc2nsnc12)C(C)C (stereo not drawn),7.12%
23,CC(=O)Nc1ccc(NC(=O)/C=C/c2ccccc2)cc1,-4.75%

row,Compound,"hERG current change (%, negative = inhibition) at 1uM"
1,Cn1c(Cc2ccccc2)nnc1SCC(=O)Nc1ccc(N2CCOCC2)cc1,9.84%
2,Cn1nnnc1SCc1cn2cccnc2n1,9.44%
3,O=C(c1cc(COc2ccc3ncccc3c2)on1)N1CCCC(O)C1 (stereo not drawn),10.7%
4,Cn1nccc1C(=O)N/N=C/c1ccccc1[N+](=O)[O-],11.8%
5,CCOC(=O)c1ccccc1NC(=O)COC(=O)CSC(C)C(=O)Nc1cc(C)on1 (stereo not drawn),4.4%
6,Cc1ccc(S(=O)(=O)N2CCN(c3nc(C(C)C)c4c(c3C#N)CC(C)(C)OC4)CC2)cc1,11.8%
7,O=C1NC(=O)/C(=C\c2ccc(Oc3ccc([N+](=O)[O-])cn3)cc2)S1,18.5%
8,COC(=O)c1cc(=O)cc(C(=O)OC)o1,9.97%
9,Cc1cc(C(=O)CSc2nnnn2C)c(C)n1-c1cccc(F)c1,1.66%
10,CCn1c(C)cc(O)cc1=O,9.68%
11,CC(=O)Nc1ccc(S(=O)(=O)N2CCC(c3nc4ccc(C)cc4[nH]3)CC2)cc1,-15.8%
12,CC12CCC(=O)N1C(C(=O)OCC(=O)Nc1cc(S(=O)(=O)N3CCCCC3)ccc1Cl)CS2 (stereo not drawn),11.1%
13,Clc1cccc(CN2CCCCCC2)c1,12.3%
14,Cc1cc(C)c(CN2CCC(n3nccc3NC(=O)CCOc3ccccc3)CC2)cc1C,14.4%
15,NC(=O)c1ccc(NC(=O)c2cc(S(=O)(=O)N3CCCCC3)ccc2N2CCOCC2)cc1,13.4%
16,CCSC1=NCCN1C(=O)C(C)(C)Oc1ccc(Cl)cc1,12.2%
17,Cc1ccc(S(=O)(=O)N2CCN(C(=O)c3ccc(COc4ccccc4)o3)CC2)cc1,5.45%
18,CCCCNC(=O)c1onc(CS(=O)(=O)c2ccccn2)c1C(=O)NCCCC,-1.58%
19,CC(=O)c1c(C)nc(-c2ccccc2)nc1NC(=O)Cc1ccccc1,9.16%
20,CCCc1nc2ccccc2c(=O)n1-c1c(C)n(C)n(-c2ccccc2)c1=O,0.991%
21,CC[C@]1(c2ccccc2C)ON(c2ccccc2C(F)(F)F)C1=O,9.17%
22,O=C(NNC(=O)C1[C@H]2CCCC[C@@H]12)NC1CCCCC1 (stereo partly drawn),7.63%
23,Cc1cccc(CN2CCCN(Cc3ccc(Cl)cc3)S2(=O)=O)c1,3.91%

row,Compound,"hERG current change (%, negative = inhibition) at 1uM"
1,Cc1nc(SCc2cccc(F)c2)[nH]c(=O)c1C#N,0.264%
2,O=C(O)C(=O)O.O=C(c1ccccc1)N1CCN(Cc2ccccc2C(F)(F)F)CC1,9.4%
3,CCN(CC)CCCNC(=O)c1cc2c(=O)[nH]c3ccc(C)cc3c2s1,14.6%
4,CC1CN(CCCCN2C(=O)c3ccccc3C2=O)CC(C)O1.O=C(O)C(=O)O (stereo not drawn),10.5%
5,CC(C)CC(NC(=O)C1CCC(=O)N1C(=O)OCc1ccccc1)C(=O)NC(Cc1ccccc1)C(N)=O (stereo not drawn),17.7%
6,COC(=O)c1sccc1NC(=S)NCc1ccc(Cl)cc1,15.6%
7,COc1ccccc1CNC(=O)C1CCN(c2ncnc3c2nc2n3CCCCC2)CC1,11.9%
8,CCOc1ccccc1NC(=O)c1ccc(S(=O)(=O)N2CCCCC2)cc1,12.6%
9,N/C(Cn1nnc(-c2ccccc2)n1)=N\O,-2.88%
10,CCC(C)C(NC(=O)OC(C)(C)C)C(=O)NC(C)C(N)=O (stereo not drawn) (Boc-Ile-Ala-NH2; configuration not given here),11.1%
11,COc1cc2nc(CN3C(=O)c4ccccc4C3=O)oc(=O)c2cc1OC,17.4%
12,C#CCN(C)CC/C=C1\c2ccccc2CSc2ccccc21.Cl,3.79%
13,Cc1cc(N)n(-c2nc3ccccc3s2)n1,-0.476%
14,CC1CCCC(C)N1CCNC(=O)Cn1nc(-c2ccccc2)ccc1=O (stereo not drawn),-2.41%
15,CCCCOC(=O)Nc1sc2c(c1C(=O)OC)CCC2,2.38%
16,COC(=O)CSc1nnc(-c2ccc(OC)cc2OC)o1,-4.1%
17,Cc1c(C(=O)NCC2CCCO2)oc2ccc3c(c12)C(=O)CC(C)(C)O3 (stereo not drawn),10%
18,FC(F)(F)c1nc2nncn2c2c1CCCCC2,-0.576%
19,CCCc1cc(SCC(=O)Nc2c(C)n(C)n(-c3ccccc3)c2=O)n2c(nc3ccccc32)c1C#N,5.01%
20,O=C(OCC(=O)c1c[nH]c2ccccc12)C1=COCCO1,10.1%
21,CCOC(=O)C1=C(COC(=O)C(CC)c2ccccc2)NC(=O)NC1C (stereo not drawn),14.9%
22,COc1cc(SC)ccc1C(=O)OCC(=O)NCCC1=CCCCC1,8.39%
23,COc1ccccc1-c1nnc(NC(=O)c2ccccc2F)o1,3.1%

row,Compound,"hERG current change (%, negative = inhibition) at 1uM"
1,CCOc1ccc(NC(=O)CSc2nnc(Cc3cccn3C)n2-c2ccc(OC)cc2)cc1,-5.16%
2,CSc1ccccc1NC(=O)CO/N=C(\C)c1cc2ccccc2o1,6.83%
3,COc1ccc(C(=O)C2CCCN(C(=O)CSC)C2)cc1OC (stereo not drawn),11.9%
4,O=S(=O)(c1ccc(N2CCCC2)cc1)C(F)(F)F,10%
5,O=C(CCc1nc(-c2ccccc2F)no1)Nc1cccnc1,5.53%
6,COC(=O)CCC(=O)Nc1nccs1,6.03%
7,Cc1cccc(N2CC3=C(C2=O)C(c2ccccc2)NC(=O)N3C)c1 (stereo not drawn),-8.06%
8,COc1cc(SC)ccc1C(=O)Nc1nccs1,-4.11%
9,Cc1cccc(C(=O)Nc2sc(C)c(-c3ccccc3)c2C#N)c1,11.7%
10,COc1c(OC(C)=O)ccc(/C=C/c2ccc3cccc(OC)c3n2)c1[N+](=O)[O-],15.5%
11,Cc1cccc(C)c1NC(=O)c1nc(S(=O)(=O)Cc2ccccc2)ncc1Cl,13%
12,CCc1ccccc1NC(=O)c1cc(-c2cccs2)on1,11%
13,CN(C(=O)CN1C(=O)NC(c2ccccc2)(c2ccccc2)C1=O)C1CCS(=O)(=O)C1 (stereo not drawn),15%
14,CCSc1nnc([C@H](Cc2c[nH]c3ccccc23)NC(=O)OC(C)(C)C)o1,5.13%
15,O=c1[nH]nc(-c2cccs2)c2ccccc12,8.52%
16,Cc1nn(CC(=O)OCCOc2ccc(Br)cc2)c(C)c1[N+](=O)[O-],-2.66%
17,c1ccc(Cc2nc3ccccc3[nH]2)cc1,1.24%
18,Cc1ccc(C)c(NC(=O)CCN2CCN(C)CC2)c1,13.6%
19,CN(Cc1cn(C)nc1-c1cccc(Cl)c1)Cc1nccn1C,5.26%
20,CN(C(=O)c1ccc(OC2CCN(CCc3ccccc3)CC2)cc1)C1CCOC1 (stereo not drawn),4.27%
21,COc1ccc(S(=O)(=O)N2CCOCC2)cc1NC(=O)c1cccc(-n2cccc2)c1,-0.783%
